Results taken from PubChem BioAssay AID588342 (National Center for Advancing Translational Sciences (NCATS), 2011).
About 25,000 (6.9%) of roughly 360,000 compounds were called active. The inconclusive results got no clear call from the source; some entries with a clear call stand among them for comparison. The call rests on the fitted dose curve; in most records, active means well fitted inhibition curve with a large enough effect; inconclusive means small, poorly fitted or top-dose-only effect; inactive means flat fitted curve, though single readings scatter. Potencies of inconclusive entries are doubtful fits and often do not repeat.

What follows are compounds tested against Luciferin 4-monooxygenase (Photinus pyralis) (UniProt P08659) (assay: qHTS profiling assay for firefly luciferase inhibitor/activator using purifed enzyme and Km concentrations of substrates (counterscreen for miR-21 project)). Conditions: purified FLuc, luminescence inhibition; series mostly up to 57.5 µM.
Chain of UniProt P08659 (P08659 whole entry, looked up): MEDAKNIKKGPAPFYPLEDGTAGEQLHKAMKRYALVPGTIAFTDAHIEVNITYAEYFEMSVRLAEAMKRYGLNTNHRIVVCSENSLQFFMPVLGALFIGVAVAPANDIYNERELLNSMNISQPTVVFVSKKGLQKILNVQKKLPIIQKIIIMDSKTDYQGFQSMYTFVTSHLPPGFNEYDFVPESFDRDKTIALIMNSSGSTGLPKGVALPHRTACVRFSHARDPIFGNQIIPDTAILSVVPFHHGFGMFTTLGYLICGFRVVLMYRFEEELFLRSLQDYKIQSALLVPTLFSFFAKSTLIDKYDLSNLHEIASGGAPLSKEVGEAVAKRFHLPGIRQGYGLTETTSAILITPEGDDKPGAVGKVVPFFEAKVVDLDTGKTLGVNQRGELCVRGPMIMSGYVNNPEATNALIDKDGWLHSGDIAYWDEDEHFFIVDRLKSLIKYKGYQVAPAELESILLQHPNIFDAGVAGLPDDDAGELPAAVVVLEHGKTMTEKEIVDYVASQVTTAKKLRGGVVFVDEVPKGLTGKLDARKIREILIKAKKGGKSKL
Outline: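 Purified P. pyralis luciferase (10nM final) with 10uM D-luciferin and 10uM ATP (Km levels) in 50mM Tris acetate pH 7.5, 10mM Mg acetate, 0.01% Tween-20, 0.05% BSA; qHTS 6-point titration, ~60 µM downward; luminescence read.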
Further: nearly all actives have a fitted effect of over 55% in size.
Potency means the concentration at half of the fitted maximal effect; tags describe the fitted curve by direction and shape.

SMILES | Potency
Cc1ccccc1C(=O)NC(=S)Nc1ccc(N2CCOCC2)cc1 | inconclusive: 37.9 µM [inhibitor, partial curve, poor fit]
CCOc1ccc(/C(O)=C2/C(=O)C(=O)N(CCN(CC)CC)C2c2ccco2)cc1 (configuration not stated) | inconclusive: 26.9 µM [inhibitor, single point]
Cc1ccc(S(=O)(=O)c2nc(Nc3ccccc3)sc2Cl)cc1 | inconclusive: 23.9 µM [inhibitor, partial curve, poor fit]
C/C(=N/NC(=O)c1ccc(C)s1)c1cccnc1 | active: 19 µM
COc1ccc(-c2cc3ccc(OC)cc3cn2)cc1 | active: 0.19 µM
COc1ccc(OCCCC(=O)ON=C(N)c2ccccc2C)cc1 | inactive
CCOC(=O)CNC(=O)CSc1nc(-c2ccc(C)cc2)ns1 | active: 12 µM
CCOC(=O)c1ccc(CN(Cc2ccc(Cl)cc2Cl)S(=O)(=O)c2ccc(F)c(C)c2)cc1 | inactive
O=C(CC(Nc1ccc(Cl)cc1Cl)C(=O)O)c1ccccc1 (configuration not stated) | active: 2.69 µM
Cc1ccc(C(=O)N/N=C\c2ccc(-c3ccc(Cl)cc3)o2)cn1 | inconclusive: 15.1 µM [inhibitor, partial curve, poor fit]
Cc1ccc(Cc2cnc(N3C(=N)SC(C)C3=O)s2)cc1 (configuration not stated) | inconclusive: 10.7 µM [inhibitor, partial curve]
O=C1c2cccnc2C(=O)N1Cc1ccc(S(=O)(=O)N2CCOc3ccccc32)cc1 | inactive
c1ccc2c(c1)CCN(c1nc3cc4c(cc3s1)OCO4)C2 | active: 1.35 µM
CCOc1cccc(C(=O)Nc2cccc(C(=O)NCC(C)C)c2)c1 | inconclusive: 23.9 µM [inhibitor, single point]
COc1cc(C(=O)Nc2nc3ccc(C)cc3s2)ccc1OCc1c(C)noc1C | inconclusive: 8.49 µM [inhibitor, partial curve]
Cc1ccc(NC(=O)CSCC(=O)N(C)CC(=O)Nc2cccc(F)c2)cc1 | inconclusive: 21.3 µM [inhibitor, partial curve, poor fit]
COc1cccc(OCC(=O)NNC(=O)C(=O)Nc2cccc(C)c2)c1 | inconclusive: 5.36 µM [inhibitor, partial curve, poor fit]
Cc1ccc(-c2nc(Nc3ccc(N4CCOCC4)cc3)c3ccccc3n2)cc1 | active: 23.9 µM
Cc1[nH]c2ccccc2c1C(=O)COC(=O)c1c(-c2c(F)cccc2Cl)noc1C | inactive
c1ccc2nc(N3CCOCC3)cnc2c1 | inconclusive: 30.1 µM [inhibitor, partial curve, poor fit]
CC(=O)N1CCN(c2nc3ccc(Br)cc3s2)CC1 | active: 15.1 µM
COc1cccc(C(=O)Nc2cccnc2)c1OC | inactive
CC(C)Cc1nn2c(N)c(/C=C3\C=Nc4ccccc43)c(=O)nc2s1 | inconclusive: 26.9 µM [inhibitor, partial curve, poor fit]
CCCCCNC(=O)C(C#N)c1nc2ccccc2nc1N1CCCC1 (configuration not stated) | inactive
O=C(Nc1ccccc1C(=O)Nc1ccncc1)c1ccc([N+](=O)[O-])cc1 | active: 19 µM
Cc1sc(NC(=O)c2ccco2)c(C(c2cccnc2)N2CCC(C)CC2)c1C (configuration not stated) | inactive

SMILES | Potency
c1ccc(N2CCN(Cc3cccn3-c3nnc(N4CCN(C5CCCCC5)CC4)s3)CC2)cc1 | inactive
O=[N+]([O-])c1cc2c(c(CSc3nnc(Nc4ccccc4)s3)c1)OCOC2 | inactive
CC(=O)c1sc(NC(=O)c2cccs2)nc1C | active: 9.53 µM
CCCCCCCCOc1ccc(C(=O)O)cc1 | inconclusive: 16.9 µM [inhibitor, single point]
Cn1c(C(=O)N2CCC(C(=O)NCc3ccccc3)CC2)cc2sccc21 | inactive
Nc1ccc2c(c1Cl)C(=O)c1ccc(N)c(Cl)c1C2=O | active: 12 µM
Cc1cc(SCC(=O)c2ccc(O)c(O)c2)nc2ccccc12 | inconclusive: 37.9 µM [inhibitor, single point]
Cc1ccccc1NC(=O)c1cccc2nccnc12 | inconclusive: 26.9 µM [inhibitor, partial curve]
O=C(Nc1ccc(O)cc1)c1cc2ccccc2c(=O)s1 | inconclusive: 13.5 µM [inhibitor, partial curve]
O=C(NCCc1cccs1)c1ccc(Cl)cc1 | active: 1.2 µM
Cc1ccc(-n2ncc3c(=O)n(CC(=O)N4CCCCCC4)cnc32)cc1 | active: 16.9 µM
CCOc1ccc(CCNC(=O)COC(=O)c2nccnc2N)cc1OCC | inactive
CC(C)(C)c1ccc(C(=O)N/C(=C\c2cccc([N+](=O)[O-])c2)C(=O)Nc2cccc(C(=O)O)c2)cc1 | inconclusive: 15.1 µM [inhibitor, partial curve, poor fit]
Cc1ccc(CNC(=O)c2cccc3c2C(=O)c2ccc(N4CCCCC4)cc2S3(=O)=O)cc1 | inconclusive: 3.16 µM [inhibitor, full curve, poor fit]
Cc1cc(Cl)c(S(=O)(=O)N2CCCCCC2)cc1OCC(=O)NC1CCCCC1 | inactive
CN(C(=O)COc1ccc(Br)cc1Cl)C1CCCCC1 | inconclusive: 30.1 µM [inhibitor, single point]
COc1cc(/C=N/Nc2nc3ccccc3s2)ccc1OC(=O)c1ccccc1F | inconclusive: 26.9 µM [inhibitor, single point]
COCCNc1oc(-c2ccc(F)cc2)nc1C#N | inconclusive: 23.9 µM [inhibitor, single point]
CC1CCN(c2ccc(-c3cccc(NC(=O)C(F)(F)F)c3)nn2)CC1 | active: 0.239 µM
CCn1cnc2cc(NC(=O)c3cccs3)ccc21 | active: 15.1 µM
c1ccc(NCc2nc(-c3ccccc3)no2)cc1 | active: 16.9 µM
O=C(Nc1ccc(N2CCOCC2)cc1)Nc1ccc2nc(-c3ccco3)c(-c3ccco3)nc2c1 | inactive
Cc1ccc(NC(=O)Nc2cnccn2)cc1C | active: 21.3 µM
O=C(O)c1cc(-c2cccs2)nc2ccc(F)cc12 | inconclusive: 21.3 µM [inhibitor, single point]
Cc1ccc(-c2cc(C(=O)N3CCCCC3)c3ccccc3n2)cc1C | active: 2.39 µM
Cc1cc(C(=O)Cn2nc(C(=O)O)c3ccccc3c2=O)c(C)n1CCc1ccc(F)cc1 | inconclusive: 23.9 µM [inhibitor, partial curve, poor fit]

SMILES | Potency
COc1ccc2oc(C(=O)OCC(=O)N(C)C3CCS(=O)(=O)C3)c(C)c2c1 (configuration not stated) | inactive
O=C(Nc1ccc2oc(-c3cccnc3)nc2c1)c1ccc(Br)cc1 | inactive
O=C(c1ccco1)N1N=C(c2ccc3nccnc3c2)CC1c1ccccc1 (configuration not stated) | active: 16.9 µM
COCC1CCN(C(=O)CCc2nnc(C3(c4ccc(Cl)cc4)CCC3)o2)C1 (configuration not stated) | inconclusive: 23.9 µM [inhibitor, partial curve]
Cc1cc(C(C)(C)C)cc(S(=O)(=O)Nc2ccc(C(=O)O)cc2)c1C | inconclusive: 37.9 µM [inhibitor, partial curve, poor fit]
CC(=O)Nc1nonc1-c1nnc(SCC(=O)Nc2cccc(F)c2)n1-c1ccccc1 | inactive
Cc1ccc(N2CCN(S(=O)(=O)c3cc(C(=O)Nc4cc(Cl)cc(Cl)c4)ccc3F)CC2C)cc1 (configuration not stated) | inactive
COC(=O)c1scc(-c2ccc(C)cc2)c1S(=O)(=O)Nc1ccc(F)cc1F | inconclusive: 16.9 µM [inhibitor, partial curve]
O=C(O)c1ccc(NC(=O)C(c2ccccc2)c2ccccc2)cc1 | inactive
O=C(NC(Cc1ccccc1)C(=O)O)/C(=C/c1ccccc1)NC(=O)c1cccc(Br)c1 (configuration not stated) | inconclusive: 30.1 µM [inhibitor, partial curve, poor fit]
O=C(Nc1cccc(-c2nn[nH]n2)c1)c1csc2c1CCCC2 | active: 10.7 µM
COC(=O)c1ccc(N2NC(=O)/C(=C/c3cc(OC)c(OC)c(OC)c3)C2=O)cc1 | active: 19 µM
c1coc(CNc2nc(-c3cccs3)cs2)c1 | active: 23.9 µM
COc1ccc(C(=O)NNC(=O)c2cc(C)nc3ccccc23)cc1 | inconclusive: 15.1 µM [inhibitor, partial curve]
CCN(Cc1ccccc1)c1ccc(/C=N/N2CCOCC2)cc1 | inconclusive: 21.3 µM [inhibitor, partial curve]
O=C(O)c1cn(CCOc2ccccc2Cl)c2ccccc12 | inconclusive: 16.9 µM [inhibitor, partial curve]
CCc1sc(-c2ccccc2)nc1C(=O)OC | inconclusive: 23.9 µM [inhibitor, partial curve, poor fit]
O=C(C[n+]1ccccc1)N/N=C/c1cc(Br)ccc1O | inactive
Cc1ccc(NC(=O)CSc2ncc(S(=O)(=O)c3ccc(C(C)C)cc3)c(=O)[nH]2)cc1C | inconclusive: 6.75 µM [inhibitor, partial curve]
Cc1cc(C(=O)OCC(=O)NCc2ccco2)c(C)n1-c1ccccc1 | inconclusive: 23.9 µM [inhibitor, single point]
CCN1C(=O)CSc2ccc(C(=O)NC3CCCCC3)cc21 | inconclusive: 23.9 µM [inhibitor, partial curve, poor fit]
CCCN(CCC)C(=O)Cn1nnc2sc(-c3ccccc3)cc2c1=O | inactive
CCc1ccc(C(=O)Nc2nc(C)cs2)s1 | active: 0.953 µM
N/C(=N\OC(=O)CCC1CCCCC1)c1cccc([N+](=O)[O-])c1 | active: 10.7 µM
CN(C)c1ccc(/C=N/NC(=O)c2cccc(C(=O)N/N=C/c3ccc(N(C)C)cc3)n2)cc1 | inconclusive: 0.0067 µM [inhibitor, full curve, poor fit]
